# The supplement of paper PMC11417369
# The list shows a part of the results.
# System: PfSIP2 AP2 domain 1 (GST-tagged)
# Experiment: gcPBM binding intensity (ln(normalized median fluorescence intensity)); higher = stronger DNA binding
# In short: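 Plasmodium falciparum DNA-binding domains carrying a GST tag were expressed in E. coli and applied for 1 h, at about 25 μg on average, to an Agilent 4 × 180k array. The array held primer-extended double-stranded 36-bp intergenic genomic probes together with negative controls, and binding took place in 1× PBS with 1% milk, 0.2 mg/ml BSA, 0.5% salmon testes DNA and 0.03% Triton X-100. An Alexa488 anti-GST antibody detected bound protein, and the array was scanned at 488 nm. Binding intensity is taken as the highest Masliner-normalised natural-log median intensity across replicate spots of either probe orientation.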
row,Sequence,gcPBM binding intensity (ln)
1,ATTGAAAATTGTTGCACACATAATAATTAAATATAT [CACACA_site1857],7.25
2,TATATTTCTTATTTCTTATTTTGTCATCACCTTTTT [CACACA_negctrl_site1115],6.86
3,TTACATAATATATGTACACACGCAAATACTTATAAT [CACACA_site7995],7.01
4,TATAAATATGTTCTTACACACACGAATATAAATATG [CACACA_site7537],6.99
5,AAAAAAATCACATAAAATACTTTATTTTATATTATA [GTGCAC_negctrl_site372],6.81
6,GCTTATGCTCAATATTGTACTTTTTTTATTTATTCA [XGTACX_site8863],7.21
7,TACTTCTTTTTTATTTATTTTACTTTTTATTCTGTA [CACACA_negctrl_site772],7.18
8,ATTTAATTTTTTTTTAAACACACATTTTTTTATTTA [CACACA_site8880],6.91
9,TTCAATTATATTCTTTGTACGAATCTTCTATAAATT [XGTACX_site4346],6.99
10,AAAATTATTAAATATGTACACACGTACATTTTATAA [CACACA_site8750],7.01
11,ATATATATATATATATGTACATATACACATGTGTGC [XGTACX_site168],9.46
12,AAATAAATAATAAATAAATAAATAAAATACCAAATA [GTGCAC_negctrl_site620],7.02
13,TATAAATATGTGTATACACACCTGATAAAGGTATAT [CACACA_site7283],6.97
14,TTATGTAGTATAATGAGTACTAAATATAGATATGTT [XGTACX_site6335],7.19
15,AATATTATAAATGATACACACTTAAAATACAGACAC [CACACA_site8868],7.5
16,AATTACTTAAATTATTGTACCCTAATGTTAATTTCA [XGTACX_site825],7.01
17,TTTTATATCTACCTTTGTACATATTTATTTTTTTTA [XGTACX_site7872],7.17
18,TTCATAAAAAATGTAGTGCATTGAATAAAATTACAT [GTGCAC_site9393],8.06
19,TTAATTTTGGTAAATGCATGTAATTAAAAATAAAAA [TGCATGCA_site234],7.12
20,ATATTGAAATTAAAAAAATATATGAACAAATGATGA [CACACA_negctrl_site602],7.07
21,TAAATTTTTTTTTTTTGTACACAAAAATATAATATT [XGTACX_site8151],6.74
22,TATTTTGAAATGGAAAGGATATAGAACTTAAACAAA [CACACA_negctrl_site1530],7.07

row,Sequence,gcPBM binding intensity (ln)
1,TTTATAAAAAGCATAACACACACATGTCAATATATA [CACACA_site8286],6.96
2,AACATACGACAATACGCACACATATAAGTACATATT [CACACA_site8584],7.13
3,ATACATTCAAAATATACACACATATATCTATAATAT [CACACA_site6576],7.1
4,TTTCTTTAGTAGAATGTAAAAAATATAATCTTCTTA [TGCATGCA_negctrl_site298],6.47
5,TTACAAAACCGATGTTGTACATTCAATAGATAATGT [XGTACX_site3806],7.08
6,AATGTATAAAAGTTTTGTACATATTCTCACACATAT [XGTACX_site965],6.97
7,ATATACCATATGCATGGTACACATTTACAACAAAAA [XGTACX_site3142],6.97
8,TAGTTGTGAGTTACATGTACATGTATTTATTTTTTA [XGTACX_site7088],6.91
9,TTTATTAAATAAAGCACACACAACAACTTTTCACAA [CACACA_site4132],7.05
10,GATAACAATATGTGTACACATTTATATCTCCACATA [CACACA_site5442],7.29
11,ATAACGTAAACAATGTGGACACATACATAAATATAT [XGTACX_site707],7.43
12,TATAACAAGTAATGGTGTACATTATATTATGTAATA [XGTACX_site2761],6.95
13,CATATGCGTCTTGCCTTGCACACTTTTATGAAAAAA [CACACA_site2055],7.29
14,TAATACTTAAAATGTTGTACATAATAATTTTATATT [XGTACX_site5403],7
15,TATATATATATATATACATGCATTTCTCATGTACAT [TGCATGCA_site621],9.73
16,GTCATCATAATCTATTGTACAAAAATTTATACAGAT [XGTACX_site1059],7.26
17,TACATTAAACGAATAGTGCAAGAAGTATTCGTATAA [GTGCAC_site9939],7.93
18,TATAAAAATAAGTATACACACAAAATGCGTAACTTT [CACACA_site1295],6.72
19,ATAAATACATTAAAATGTACATAAAAATATTACTGG [XGTACX_site1484],6.85
20,AAAAAAAAAAAAAACACACACACACGCAAATACATA [CACACA_site6474],7.4
21,TCCTTAAATATAAAGGTGCTATGCAGACCTTATGTT [GTGCAC_site9472],7.9
22,ATATAAGTACGGCATGCATGCACATTTTTTTATTCC [TGCATGCA_site101],7.09
